According to publication PMC5892938:
The list shows a part of the results. At the low end of the ranking the order means little.

Molecular target: GST-SBP-SLBP (stem-loop binding protein) (UniProt Q14493)
Assay: targeted RNA Bind-n-Seq;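 note: DESeq read counts versus GST-SBP nonspecific binding control pulldown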
Details: RBNS binding buffer: 25 mM Tris pH 7.5, 150 mM KCl, 3 mM MgCl2, 0.1% Tween, 0.5 mg/mL BSA, 1 mM DTT; 27 nM protein, 750 pM RNA pool; temperature not stated; high values mean tight binding

| Sequence | binding signal (log2 fold change) |
| --- | --- |
| GGUCACGUCUCAAUCAACUCUUCUUCCAGGGAAAGCCCUGGUAUUUUCAACAGCUCGCAGUCAAG | -0.0795 |
| GGUCACGUCUCAAUCAACUCAUCCCCAGGAGUUUUCUCCUGCUAACUCAACAGCUCGCAGUCAAG | 0.0368 |
| GGUCACGUCUCAAUCAACUCAACUUCAGGAGUUUACUCCUGCUAACUCAACAGCUCGCAGUCAAG | 0.113 |
| GGUCACGUCUCAAUCAACUCAUUAGAGGGGGGGAAAACCCCUUUGCCCUCAUACUCAACAGCUCGCAGUCAAG | 0.461 |
| GGUCACGUCUCAAUCAACUCUUCUUCAGGAGUUUUCUCCUGCUUUUUCAACAGCUCGCAGUCAAG | -0.0966 |
| GGUCACGUCUCAAUCAACUCGUUUUCAGGAGUUUCCUCCUGCUUUCUCAACAGCUCGCAGUCAAG | 0.0939 |
| GGUCACGUCUCAAUCAACUCUACUUCAGGAGUUUUCUCCUGCAAUUUCAACAGCUCGCAGUCAAG | 0.0407 |
| GGUCACGUCUCAAUCAACUCUUUCCCCAGGGAAAACCCUGGCUUUCUCAACAGCUCGCAGUCAAG | -0.463 |
| GGUCACGUCUCAAUCAACUCCUUCGAGGGGGGGAAAACCCCUUUACCCUCUUUAUCAACAGCUCGCAGUCAAG | 0.0584 |
| GGUCACGUCUCAAUCAACUCAAUAGAGGGGGGGAAAACCCCUUUACCCUCGUCAUCAACAGCUCGCAGUCAAG | -0.00109 |
| GGUCACGUCUCAAUCAACUCUUUAGAGGGGGGGAAAACCCCUUUACCCUCGUCUUCAACAGCUCGCAGUCAAG | -0.0358 |
| GGUCACGUCUCAAUCAACUCAUUUUCCAGGGAAAACCCUGGUAAUCUCAACAGCUCGCAGUCAAG | 0.124 |
| GGUCACGUCUCAAUCAACUCAGUCCCCAGGGAAAACCCUGGCUUUUUCAACAGCUCGCAGUCAAG | -0.238 |
| GGUCACGUCUCAAUCAACUCUUUUCCCAGGGAAAACCCUGGCUAUGUCAACAGCUCGCAGUCAAG | -0.00383 |
| GGUCACGUCUCAAUCAACUCUACUCCCAGGGAAAGCCCUGGUUUAUUCAACAGCUCGCAGUCAAG | -0.196 |
| GGUCACGUCUCAAUCAACUCUUUUUCCAGGGAAAGCCCUGGUUUACUCAACAGCUCGCAGUCAAG | 0.0963 |
| GGUCACGUCUCAAUCAACUCAGUUCCCAGGGAAAACCCUGGCUUAUUCAACAGCUCGCAGUCAAG | -0.0221 |
| GGUCACGUCUCAAUCAACUCAACUCCAGGAGUUUUCUCCUGCUAAUUCAACAGCUCGCAGUCAAG | 0.00114 |
| GGUCACGUCUCAAUCAACUCUAUCUCCAGGGAAAGCCCUGGUUAAUUCAACAGCUCGCAGUCAAG | -0.0695 |
| GGUCACGUCUCAAUCAACUCAUCUUCAGGAGUUUUCUCCUGCUAUGUCAACAGCUCGCAGUCAAG | 0.17 |
| GGUCACGUCUCAAUCAACUCUUCGUCCAGGGAAAACCCUGGCUAAUUCAACAGCUCGCAGUCAAG | 0.0448 |
| GGUCACGUCUCAAUCAACUCCUAAGAGGGGGGGAAAACCCCUUUGCCCUCAUCAUCAACAGCUCGCAGUCAAG | -0.174 |
| GGUCACGUCUCAAUCAACUCCCAAAGGUUUUUUUAAGAGCCACCCAUCAACAGCUCGCAGUCAAG | 0.54 |
| GGUCACGUCUCAAUCAACUCUAAAGAGGGGGGGAAAACCCCUUUACCCUCCAUGUCAACAGCUCGCAGUCAAG | -0.122 |

| Sequence | binding signal (log2 fold change) |
| --- | --- |
| GGUCACGUCUCAAUCAACUCAUCUCCCAGGGAAAACCCUGGCUUAUUCAACAGCUCGCAGUCAAG | -0.232 |
| GGUCACGUCUCAAUCAACUCUUUUCCCAGGGAAAGCCCUGGCUUAUUCAACAGCUCGCAGUCAAG | 0.153 |
| GGUCACGUCUCAAUCAACUCAUUCCCAGGAGUUUUCUCCUGCAAACUCAACAGCUCGCAGUCAAG | 0.0145 |
| GGUCACGUCUCAAUCAACUCCCACGAGGGGGGGAAAACCCCUUUACCCUCUUAAUCAACAGCUCGCAGUCAAG | 0.0141 |
| GGUCACGUCUCAAUCAACUCUAUCUCAGGAGUUUUCUCCUGCAAUGUCAACAGCUCGCAGUCAAG | -0.0446 |
| GGUCACGUCUCAAUCAACUCAUUUUCCAGGGAAACCCCUGGCUUAGUCAACAGCUCGCAGUCAAG | 0.294 |
| GGUCACGUCUCAAUCAACUCUUUUCCCAGGGAAAUCCCUGGUUUACUCAACAGCUCGCAGUCAAG | -0.0531 |
| GGUCACGUCUCAAUCAACUCAUUCCCCAGGGAAAACCCUGGCAAAUUCAACAGCUCGCAGUCAAG | -0.0194 |
| GGUCACGUCUCAAUCAACUCAUGUCCAGGAGUUUUCUCCUGUUAUUUCAACAGCUCGCAGUCAAG | -0.184 |
| GGUCACGUCUCAAUCAACUCAAUCUCCAGGGAAAGCCCUGGUAAAUUCAACAGCUCGCAGUCAAG | -0.0372 |
| GGUCACGUCUCAAUCAACUCAGUCCCCAGGGAAAACCCUGGUAAAUUCAACAGCUCGCAGUCAAG | -0.104 |
| GGUCACGUCUCAAUCAACUCUACUCCAGGAGUUUACUCCUGUAAUCUCAACAGCUCGCAGUCAAG | 0.165 |
| GGUCACGUCUCAAUCAACUCUCUCGAGGGGGGGAAAACCCCUUUACCCUCAUUCUCAACAGCUCGCAGUCAAG | 0.282 |
| GGUCACGUCUCAAUCAACUCACUAGAGGGGGGGAAAACCCCUUUACCCUCAAAUUCAACAGCUCGCAGUCAAG | 0.00988 |
| GGUCACGUCUCAAUCAACUCACUAGAGGGGGGGAAAACCCCUUUGCCCUCGAAUUCAACAGCUCGCAGUCAAG | -0.0769 |
| GGUCACGUCUCAAUCAACUCUUCGCCAGGAGUUUUCUCCUGUAUUUUCAACAGCUCGCAGUCAAG | -0.297 |
| GGUCACGUCUCAAUCAACUCAUCUUCCAGGGAAAACCCUGGCAUUCUCAACAGCUCGCAGUCAAG | 0.186 |
| GGUCACGUCUCAAUCAACUCAUCCUCCAGGGAAAGCCCUGGCAUUUUCAACAGCUCGCAGUCAAG | 0.259 |
| GGUCACGUCUCAAUCAACUCAAUUCCCAGGGAAAUCCCUGGUUUUUUCAACAGCUCGCAGUCAAG | -0.178 |
| GGUCACGUCUCAAUCAACUCAAUCCCCAGGGAAAUCCCUGGUAAUCUCAACAGCUCGCAGUCAAG | -0.0165 |
| GGUCACGUCUCAAUCAACUCUACUCCAGGAGUUUACUCCUGCAAUUUCAACAGCUCGCAGUCAAG | -0.176 |
| GGUCACGUCUCAAUCAACUCGUCUUCAGGAGUUUACUCCUGCUUUUUCAACAGCUCGCAGUCAAG | 0.115 |
| GGUCACGUCUCAAUCAACUCAAUGUCAGGAGUUUGCUCCUGCUUUUUCAACAGCUCGCAGUCAAG | -0.243 |
